The text below walks through data of the antibiotic and cytotoxicity screens of Wong et al. (2023).

Some of the results follow.

The subject of one assay is HSkMC. In words: cytotoxicity call (relative viability < 0.9). As to conditions: 10 µM.
In a further assay the test system is HepG2. As to the kind of experiment: cytotoxicity call (relative viability < 0.9). As to conditions: 10 µM.
Another assay relates to S. aureus RN4220. As to the kind of experiment: growth inhibition call (relative growth <= 0.2). As to conditions: 50 µM.

For `C[C@@H]1O[C@H](O)[C@@H](F)[C@H](O)[C@@H]1O`, the cytotoxicity call in the assay on HSkMC and in the assay on HepG2 was “inactive” throughout. In the assay with S. aureus RN4220, the growth inhibition call was “inactive”.

As to `C[C@H](CO)N1C[C@H](C)[C@@H](CN(C)S(=O)(=O)c2ccccc2)Oc2ccc(NC(=O)c3ccncc3)cc2CC1=O`, the cytotoxicity call in the assay with HSkMC and in the assay on HepG2 was “inactive” throughout. Further, the growth inhibition call with S. aureus RN4220 was “inactive”.

`CC(C)NC(=O)Nc1ccc2c(c1)C(=O)N([C@@H](C)CO)C[C@@H](C)[C@@H](CN(C)Cc1ccccc1)OCCCC[C@@H](C)O2`: the cytotoxicity call with HSkMC and in the assay with HepG2 was “inactive” in each case. Moreover, in the assay with S. aureus RN4220, the growth inhibition call is “inactive”.

With `COc1ccc(NC(=O)Nc2ccc3c(c2)C(=O)N([C@H](C)CO)C[C@@H](C)[C@@H](CN(C)Cc2ccncc2)OCCCC[C@@H](C)O3)cc1`, the cytotoxicity call in the assay with HSkMC and in the assay with HepG2 was “inactive” throughout. The growth inhibition call in the assay on S. aureus RN4220 was “inactive”.

In the case of `C[C@@H]1CN([C@@H](C)CO)C(=O)c2cc(NC(=O)NC3CCCCC3)ccc2O[C@@H](C)CCCCO[C@H]1CN(C)C(=O)CCC(F)(F)F`, the cytotoxicity call in the assay on HSkMC and with HepG2 was “inactive” in each case. The growth inhibition call in the assay on S. aureus RN4220 was “inactive”.

As to `CC(NCCC(c1ccccc1)c1ccccc1)c1ccccc1.Cl` (stereo unspecified), in the assay with HSkMC, the cytotoxicity call was “inactive”. Also, the cytotoxicity call in the assay on HepG2 is “active”. Also, in the assay on S. aureus RN4220, the growth inhibition call is “inactive”.

Turning to `C[C@@H]1CN([C@@H](C)CO)C(=O)c2cc(NS(C)(=O)=O)ccc2O[C@@H]1CN(C)Cc1ccc(C(F)(F)F)cc1`, the cytotoxicity call with HSkMC and with HepG2 was “inactive” each time. The growth inhibition call in the assay with S. aureus RN4220 is “inactive”.

For `C[C@@H]1CN([C@@H](C)CO)S(=O)(=O)c2ccc(C#Cc3ccncc3)cc2O[C@H]1CN(C)C(=O)C1CCC1`, the cytotoxicity call in the assay on HSkMC was “inactive”. For the same compound, in the assay on HepG2, the cytotoxicity call is “active”. Also, the growth inhibition call in the assay with S. aureus RN4220 is “inactive”.

As for `O=C1NC[C@@H]2CN(C(=O)c3cnccn3)C[C@@H]12`, the cytotoxicity call in the assay with HSkMC and in the assay with HepG2 was “inactive” throughout. The growth inhibition call with S. aureus RN4220 was “inactive”.

For `Cn1cncc1CN1CCO[C@]2(COCCN(S(C)(=O)=O)C2)C1`, the cytotoxicity call in the assay on HSkMC and with HepG2 was “inactive” throughout. Moreover, the growth inhibition call in the assay with S. aureus RN4220 was “inactive”.

In the case of `Cc1ccc(S(=O)(=O)N(C)C[C@H]2Oc3ccc(NC(=O)Nc4cccc5ccccc45)cc3C(=O)N([C@@H](C)CO)C[C@H]2C)cc1`, the cytotoxicity call in the assay on HSkMC and in the assay on HepG2 was “inactive” in each case. Further, the growth inhibition call in the assay on S. aureus RN4220 was “inactive”.

For `Cc1cc(F)ccc1S(=O)(=O)N1CCCO[C@@H]1CNC(=O)C(=O)NCc1ccncc1`, the cytotoxicity call with HSkMC and with HepG2 was “inactive” throughout. In the assay with S. aureus RN4220, the growth inhibition call was “inactive”.

Regarding `C[C@@H]1CN([C@@H](C)CO)C(=O)c2cccc(NS(=O)(=O)c3cn(C)cn3)c2O[C@@H]1CN(C)Cc1ccc2c(c1)OCO2`, the cytotoxicity call with HSkMC and in the assay with HepG2 was “inactive” in each case. Also, in the assay with S. aureus RN4220, the growth inhibition call was “inactive”.

For `O=C1c2ccccc2[C@](Cc2ccccc2I)(C(=O)NCCN2CCOCC2)[C@H](c2ccc(CO)cc2)N1C1CCCCC1`, in the assay on HSkMC, the cytotoxicity call is “inactive”. In addition, in the assay on HepG2, the cytotoxicity call is “active”. In addition, in the assay on S. aureus RN4220, the growth inhibition call is “inactive”.

On to `CCc1cc(=O)oc2cc(C)c3c(-c4ccccc4)coc3c12`, for which the cytotoxicity call in the assay on HSkMC and in the assay on HepG2 was “inactive” each time. Besides, the growth inhibition call in the assay on S. aureus RN4220 was “inactive”.

For `CCc1nc2ccc(C(=O)N3CCN(S(=O)(=O)CC)CC3)cn2c1N(C=O)Cc1ccc(OC)cc1`, the cytotoxicity call in the assay with HSkMC and with HepG2 was “inactive” each time. Moreover, in the assay with S. aureus RN4220, the growth inhibition call was “inactive”.

Take `C[C@H](NC(=O)C[C@H]1C[C@@H]2c3cc(NC(=O)Nc4ccc(C(F)(F)F)cc4)ccc3O[C@@H]2[C@H](CO)O1)c1ccccc1`: the cytotoxicity call in the assay on HSkMC and with HepG2 was “inactive” in each case. The growth inhibition call in the assay on S. aureus RN4220 was “inactive”.

On to `C[C@@H]1C=CNN1C(=O)c1cccnc1`, for which the cytotoxicity call with HSkMC and in the assay on HepG2 was “inactive” each time. Besides, the growth inhibition call in the assay with S. aureus RN4220 was “inactive”.

For the compound `C[C@@H]1CN([C@H](C)CO)C(=O)Cc2cc(NC(=O)Cn3cnnn3)ccc2O[C@H]1CN(C)S(=O)(=O)c1cn(C)cn1`, the cytotoxicity call in the assay with HSkMC and in the assay with HepG2 was “inactive” throughout. In addition, in the assay on S. aureus RN4220, the growth inhibition call is “inactive”.

In the case of `C[C@@H]1CN([C@H](C)CO)C(=O)c2cccc(NS(=O)(=O)c3cn(C)cn3)c2O[C@@H]1CN(C)CC1CCCCC1`, the cytotoxicity call with HSkMC and with HepG2 was “inactive” throughout. The growth inhibition call with S. aureus RN4220 is “inactive”.

Consider `C[C@H](CO)N1C[C@H](C)[C@@H](CN(C)S(C)(=O)=O)Oc2c(NC(=O)Nc3ccc4c(c3)OCO4)cccc2C1=O`, for which the cytotoxicity call with HSkMC and in the assay with HepG2 was “inactive” throughout. Further, the growth inhibition call in the assay with S. aureus RN4220 is “inactive”.

In the case of `C[C@H](CO)N1C[C@H](C)[C@@H](CN(C)Cc2ccc(-c3ccccc3)cc2)Oc2ccc(NC(=O)C3CCCCC3)cc2CC1=O`, the cytotoxicity call in the assay on HSkMC and with HepG2 was “inactive” each time. The growth inhibition call in the assay with S. aureus RN4220 is “inactive”.

As for `C[C@@H]1CN([C@@H](C)CO)C(=O)c2cc(NS(=O)(=O)c3ccc(F)cc3)ccc2O[C@@H](C)CCCCO[C@@H]1CN(C)S(=O)(=O)c1cn(C)cn1`, the cytotoxicity call in the assay with HSkMC and with HepG2 was “inactive” each time. Also, in the assay with S. aureus RN4220, the growth inhibition call is “inactive”.

As for `C[C@@H]1CCCCO[C@H](CN(C)S(=O)(=O)c2ccc(Cl)cc2)[C@H](C)CN([C@@H](C)CO)C(=O)c2cc(NC(=O)Nc3cccc4ccccc34)ccc2O1`, the cytotoxicity call with HSkMC and in the assay on HepG2 was “inactive” throughout. Also, in the assay on S. aureus RN4220, the growth inhibition call was “inactive”.

Turning to `C[C@@H]1CN([C@H](C)CO)C(=O)Cc2cc(NC(=O)Nc3cccc4ccccc34)ccc2O[C@@H]1CN(C)C(=O)Nc1ccccc1`, the cytotoxicity call in the assay on HSkMC (human skeletal muscle cells) and in the assay on HepG2 was “inactive” in each case. Also, the growth inhibition call in the assay on S. aureus RN4220 was “inactive”.

Turning to `COc1ccc(S(=O)(=O)Nc2ccc3c(c2)C(=O)N([C@H](C)CO)C[C@@H](C)[C@@H](CN(C)Cc2ccc4c(c2)OCO4)OCCCC[C@H](C)O3)cc1`, the cytotoxicity call in the assay with HSkMC and with HepG2 was “inactive” throughout. Moreover, the growth inhibition call with S. aureus RN4220 was “inactive”.

For `COc1ccc(CN(C)C[C@@H]2OCCCC[C@@H](C)Oc3ccc(NC(=O)Cc4ccccc4)cc3C(=O)N([C@H](C)CO)C[C@@H]2C)cc1`, the cytotoxicity call with HSkMC and with HepG2 was “inactive” each time. Further, the growth inhibition call in the assay with S. aureus RN4220 was “inactive”.
